Conditions: mouse, in vivo

SMILES	tissue inflammatory response and damage to bronchial and lung structures
CCCCCCCCCCCCO[C@@H]1O[C@H](CO)[C@@H](O[C@H]2O[C@H](CO)[C@@H](O)[C@H](O)[C@H]2O)[C@H](O)[C@H]1O [DDM, n-dodecyl-β-D-maltoside]	did not cause any tissue inflammatory response and any visible damage to the bronchial and lung structures
CCCCCCCCO[C@@H]1O[C@H](CO)[C@@H](O)[C@H](O)[C@H]1O [OG, n-octyl-β-D-glucoside]	did not cause any tissue inflammatory response and any visible damage to the bronchial and lung structures
